Test results as given in patent publication US12508261B2, “Methods of treating depression with vortioxetine” (Rundle Research LLC, priority 2017, dated 2025).
Values joined by “and” are separate entries in the source; they are usually repeats but may differ in a detail not shown here. Identical values can stand only once. The source gives many values for each of these; only a part stands here.

Test: Clinical pharmacokinetic study (RUN-001): vortioxetine 5 mg once daily for 29 days, then 28 days washout, obese vs normal-weight subjects
Type: in vivo, human
Conditions: for T1/2: individual subjects, EM
Protocol: To test if the obese patients would require different washout guidelines for preventing serotonin syndrome, 16 obese subjects (BMI≥35) and 13 normal subjects (BMI<25) completed a clinical trial where they were administered daily with low doses (5 mg/day) of vortioxetine for 29 days in a controlled study. All subjects were subsequently tracked for 28 days after discontinuing vortioxetine on day 29. Blood samples were collected and processed according to standard techniques.
The normal-weight control group consisted of healthy male and female volunteers aged 18 to 45 years. Their body mass index (BMI) values fell in the range of […]. […] Normal weight and obese subjects were matched as closely as possible for gender and age.
CYP2D6 genotype status was determined from whole blood samples drawn from each subject. Known alleles of CYP2D6 were tested for, as well as the presence of gene duplications (LabCorp, Inc.). CYP2D6 metabolizer status was categorized as ultra-rapid, extensive, intermediate, or poor. Ultra-rapid and poor metabolizers were not included in the study.
All subjects received vortioxetine, 5 mg once daily in the morning, for 29 days. The first dose was on Day 1, and the last dose was on Day 29. Blood sampling continued for another 28 days after the last dose, through Day 57.
Subjects spent 12 hours in the study unit on Day 1 (first dose of vortioxetine) and Day 29 (last dose of vortioxetine). On those two study days, venous blood samples (7 mL each) were drawn prior to the dose of vortioxetine, and at 1, 2, 4, 6, 8, 10, and 12 hours after dosage.
During the 29-day period of daily vortioxetine administration, subjects returned to the study unit in the morning of the following study days: 2, 3, 5, 8, 10, 12, 15, 17, 19, 22, 24, 26, and 29. At each visit, a single venous blood sample (7 mL) was drawn before the daily dose of vortioxetine. Subjects underwent a brief interview to assess subjective effects and possible adverse events. Subjects were then discharged until the next scheduled visit. They were provided with vortioxetine doses sufficient for daily morning administration until the next visit. No more than 2 consecutive doses of vortioxetine were taken on an outpatient basis.
On Day 29 (the final dose of vortioxetine), subjects spent 12 hours in the study unit as described above. They returned to the study unit for a single blood sample on the mornings of the following Days: 30, 31, 33, 36, 38, 40, 43, 45, 47, 50, 52, 54, and 57.
Plasma concentrations of vortioxetine were determined by liquid chromatography—mass spectrometry using a Shimadzu HPLC system coupled to a Sciex API-4000 mass spectrometer.
The internal standard (vortioxetine-d8) was added to calibration standards, quality control samples, and unknown study samples. All samples were extracted with methyl tert-butyl ether. The organic phase was separated and evaporated to dryness; the reconstituted extract was injected into the HPLC system. The HPLC column was a Unison UK-C18, 50 mm×2 mm, 3 micron particle size. The mobile phase consisted of an organic component (0.1% formic acid in acetonitrile) and an aqueous component (0.1% formic acid and 2 mM ammonium acetate in water). This was delivered in gradient mode at a net flow rate of 0.4 mL/min, with the organic fraction varying from 40% to 96%. m/z monitored were: 299.1/150.1 for vortioxetine, and 307.1/153 for vortioxetine-d8. The limit of quantitation was 0.1 ng/mL. […] All samples from a given study subject were extracted and analyzed at the same time using the same calibration standards.
Based on the clinical trials discussed above, several equations were derived which allow an individual to calculate the washout period (i.e., the time between stopping vortioxetine and initiating treatment with an MAOI). Data points to consisted of pre-dose plasma vortioxetine concentration (C) on each study day (t), both during (Days 1-29) and after (Days 30-57) the period of vortioxetine administration. […]

In the case of `Cc1ccc(Sc2ccccc2N2CCNCC2)c(C)c1` [vortioxetine], the “Half-Life Max” value (Normal cohort) is reported as 79.8 h, the “Half-Life Min” value (Normal cohort) is reported as 30.3 h and the “MAOI Delay at 7.5 × Half-Life, Average” value (Normal cohort) is reported as 2.4 Weeks. The “MAOI Delay at 7.5 × Half-Life, Max” value (Normal cohort) was 3.6 Weeks, the “MAOI Delay at 7.5 × Half-Life, Min” value (Normal cohort) was 1.4 Weeks and the Accumulation half-life (Normal-weight subjects, 5 mg/day, mean ± SD) was 55.4 ± 18.7 h. The “Half-Life Max” value (Obese cohort) was 171.0 h, the “Half-Life Min” value (Obese cohort) was 53.9 h and the “MAOI Delay at 7.5 × Half-Life, Average” value (Obese cohort) was 3.5 Weeks. For the same molecule, the “MAOI Delay at 7.5 × Half-Life, Max” value (Obese cohort) was 7.6 Weeks, the “MAOI Delay at 7.5 × Half-Life, Min” value (Obese cohort) was 2.4 Weeks and the T1/2 (Normal cohort (BMI<25)) was 40.9 h and 42.1 h and 48.6 h and 64.6 h and 48.3 h and 53.5 h and 30.3 h and 51.2 h and 79.8 h and 63.9 h and 52.8 h and 50.7 h. For the same molecule, the T1/2 (Obese cohort (BMI>=35)) was 129 h and 67.8 h and 57.8 h and 93.9 h and 68.5 h and 53.9 h and 76.7 h and 74.0 h and 66.9 h and 71.0 h and 84.6 h and 56.3 h and 55.9 h and 54.5 h and 83.7 h and the “washout interval before MAOI (mean obese half-life / mean control half-life × 21 days)” value (obese individuals, BMI exceeding 35 kg/m^2) was “at least 31 days”.
